Results as given in the supplement of paper PMC12217912.
Some of the results follow. The full chains were built here from the parent and the listed change. Inactive controls read about 0.05.

B1: TEV protease; numbered along this chain (parent)
chain: MGESLFKGPRDYNPISSSICHLTNESDGHTTSLYGIGFGPFIITNKHLFRRNNGTLVVQSLHGVFKVKDTTTLQQHLVDGRDMIIIRMPKDFPPFPQKLKFREPQREERICLVTTNFQTKSMSSMVSDTSCTFPSGDGIFWKHWIQTKDGQCGSPLVSTRDGFIVGIHSASNFTNTNNYFTSVPKNFMELLTNQEAQQWVSGWRLNADSVLWGGHKVFMVKPEEPFQPVKEATQL

Variants of: B1
Experiment: raw area under fraction-flipped curve 0-4 h after induction (AUC4h, not background-subtracted), DNA-recorder readout of cleavage of the substrate (dimensionless); higher = more cleavage of the substrate by the protease variant
Details: temperature: 34 °C; time window: 0-4 h after rhamnose induction
Experimental: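 In vivo DNA recorder in E. coli TOP10(DE3) ΔrhaA at 34 °C. Each TEVp single-site mutant (parent TEVp 0) is paired with a single-site variant of the 7-mer TEVs (canonical ENLYFQ|S). The substrate sits between flexible linkers in a Bxb1-sfGFP-TEVs-SsrA fusion, so cleavage stabilises Bxb1 and speeds flipping of a recombination array, read by NGS. The value is the raw area under the fraction-flipped curve over 0-4 h after rhamnose induction (AUC4h), with ≥20 reads per time point. It is not background-subtracted; inactive controls average about 0.047.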
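Note: Bxb1 expression induced with 0.2% (w/v) L-rhamnose at OD600 near 0.5, cultures sampled hourly, flipped fraction per protease–substrate barcode pair counted by paired-end Illumina sequencing.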

Variant | area with substrate ENLYCQS | area with substrate ENLYDQS | area with substrate ENLYEQS | area with substrate ENLYGQS | area with substrate ENLYHQS | area with substrate ENLYKQS | area with substrate ENLYMQS | area with substrate ENLYNQS | area with substrate ENLYRQS | area with substrate ENLYSQS | area with substrate ENLYVQS | area with substrate ENLYWQS | area with substrate ENLYPQS | area with substrate ENLYQQS | area with substrate ENLYTQS | area with substrate ENLYIQS | area with substrate ENLYYQS | area with substrate ENLYLQS
T176S | 0.086 | 0.0615 | 0.0621 | 0.047 | 0.0691 | 0.0684 | 0.0765 | 0.067 | 0.0644 | 0.0697 | 0.0878 | 0.0643 |  |  |  |  |  | 
K216S | 0.0865 | 0.0719 | 0.054 |  | 0.0643 | 0.0605 |  | 0.0717 | 0.0482 | 0.0651 |  | 0.0686 | 0.0692 | 0.0575 | 0.0684 |  |  | 
K216Q | 0.0997 |  |  | 0.062 | 0.0708 |  | 0.0604 | 0.0687 | 0.0406 | 0.0658 | 0.0953 |  |  |  | 0.0904 | 0.138 | 0.0696 | 
K216G | 0.0662 | 0.0855 |  | 0.056 | 0.0503 | 0.0299 | 0.0563 | 0.0465 | 0.0483 | 0.0549 |  | 0.108 | 0.0354 |  |  | 0.0612 | 0.0344 | 0.0592
K216F | 0.0849 |  | 0.0553 | 0.0592 | 0.0642 | 0.0868 | 0.0685 | 0.082 |  |  | 0.131 |  | 0.0512 | 0.062 | 0.0633 | 0.0831 | 0.0575 | 0.0651
M88E | 0.0561 | 0.0376 | 0.0445 |  | 0.051 | 0.026 | 0.0491 | 0.0391 | 0.0109 | 0.0595 |  | 0.0352 | 0.0672 | 0.0589 |  | 0.043 |  | 0.0398
M88C | 0.0696 | 0.0787 | 0.0638 |  | 0.0526 |  |  |  |  | 0.0606 |  | 0.0513 | 0.08 | 0.0405 |  |  |  | 
W144K | 0.0733 | 0.0809 | 0.0714 |  |  |  |  | 0.0559 |  | 0.0671 | 0.0888 |  | 0.0557 | 0.071 | 0.0846 | 0.105 |  | 
W144H | 0.0513 | 0.0611 | 0.0596 | 0.0663 | 0.0729 | 0.0702 | 0.0889 | 0.062 | 0.0602 | 0.0759 | 0.108 | 0.0754 | 0.0581 |  | 0.101 | 0.0657 |  | 
N24C |  | 0.0651 | 0.0706 | 0.0724 | 0.063 | 0.059 | 0.0648 | 0.0633 | 0.0608 | 0.078 | 0.11 | 0.0805 | 0.0784 | 0.0658 | 0.0767 | 0.0975 |  | 0.0573
N24D |  | 0.0589 | 0.0603 | 0.0523 | 0.0625 | 0.0346 |  | 0.0644 | 0.057 | 0.0621 | 0.0901 | 0.051 | 0.0268 | 0.0605 | 0.0655 | 0.086 | 0.0575 | 0.054
V200P | 0.0674 |  |  |  | 0.0465 | 0.0364 |  | 0.061 |  | 0.0827 |  | 0.0656 | 0.0749 | 0.0621 | 0.053 |  | 0.0604 | 0.0496
L112I | 0.0716 | 0.0687 | 0.0518 | 0.0987 | 0.0706 |  |  | 0.0669 | 0.0511 | 0.0659 | 0.0697 | 0.0657 | 0.0546 |  |  |  |  | 
L112C | 0.116 | 0.0711 | 0.0641 | 0.0676 |  |  | 0.0664 | 0.0509 | 0.0644 |  | 0.0801 |  | 0.0604 |  |  |  | 0.0584 | 
L112N | 0.0757 | 0.066 | 0.0617 | 0.0626 | 0.0627 |  | 0.0524 | 0.0602 | 0.0589 | 0.0622 | 0.077 | 0.0659 | 0.0758 | 0.0564 | 0.0571 | 0.0677 | 0.0443 | 0.0635
C152G | 0.0578 | 0.0629 | 0.0552 | 0.053 | 0.0582 | 0.0619 | 0.0578 | 0.0569 | 0.0566 | 0.0554 | 0.0504 | 0.0469 | 0.07 | 0.0676 | 0.0668 |  | 0.056 | 
C152I | 0.0581 | 0.0567 | 0.0629 | 0.0626 | 0.0663 | 0.0625 | 0.052 | 0.0619 | 0.0581 | 0.05 | 0.0586 | 0.0595 | 0.0571 |  | 0.0664 | 0.0546 | 0.0571 | 
S16G |  | 0.0635 | 0.0571 | 0.0662 | 0.0878 | 0.0545 |  | 0.0644 | 0.0609 | 0.0769 |  | 0.0943 | 0.0749 | 0.0482 | 0.0753 | 0.132 | 0.0633 | 
S16M |  | 0.0594 | 0.071 | 0.0607 | 0.0746 | 0.0673 | 0.0878 | 0.0649 | 0.0643 |  | 0.144 | 0.0784 | 0.0747 | 0.0593 | 0.0654 |  |  | 
K148A | 0.0914 | 0.0576 | 0.0664 | 0.0654 | 0.0673 | 0.0601 | 0.0855 | 0.0748 | 0.0585 | 0.0776 | 0.0935 | 0.093 | 0.0741 | 0.056 | 0.0783 | 0.107 | 0.0737 | 0.0812
G8S |  | 0.0644 | 0.0575 | 0.0537 | 0.0628 |  | 0.081 | 0.0603 | 0.0446 |  |  |  | 0.0673 | 0.168 |  |  |  | 
G8A |  | 0.0536 | 0.0622 | 0.0604 |  |  |  | 0.0738 |  |  |  |  | 0.0699 | 0.0707 |  |  |  | 
T23P |  | 0.0396 | 0.0449 |  | 0.0427 | 0.0394 | 0.0376 | 0.0438 |  | 0.0483 | 0.0352 | 0.0419 | 0.0381 |  | 0.0484 | 0.0464 | 0.0513 | 0.0248
L56P | 0.0508 | 0.0523 | 0.0484 | 0.0497 | 0.0436 |  | 0.0416 | 0.0495 | 0.0509 | 0.0352 | 0.0505 | 0.0558 | 0.0542 | 0.0508 | 0.0286 | 0.0407 | 0.0382 | 0.0331
E224Y | 0.0638 | 0.0673 | 0.0597 | 0.0761 | 0.0728 | 0.0662 | 0.0949 | 0.0726 | 0.0731 | 0.0952 | 0.102 | 0.056 |  | 0.0802 |  |  |  | 
H168F | 0.0626 | 0.0558 | 0.0584 |  | 0.0651 |  | 0.054 | 0.0643 | 0.106 |  | 0.0671 |  |  | 0.0655 |  |  | 0.0652 | 
R160V | 0.0869 | 0.0559 | 0.0669 | 0.0646 | 0.075 | 0.0177 | 0.0788 | 0.0532 | 0.0624 |  | 0.123 | 0.0864 | 0.0811 | 0.0538 | 0.0913 | 0.153 | 0.0521 | 
